# Experimental data as given in article PMC4336329 (PLoS ONE, 2015).
# In all, about 310,000 compounds went through this assay and about 2,200 (0.71%) showed an effect of 50% or more. The effect is printed as a negative number. The list shows a part of the results.
# Target: human ether-à-go-go-related gene (hERG) potassium channel (human, UniProt Q12809)
# Assay: primary screen, population patch clamp on CHO cells stably expressing hERG
# Sequence of human ether-à-go-go-related gene (hERG) potassium channel (Q12809 whole entry, looked up): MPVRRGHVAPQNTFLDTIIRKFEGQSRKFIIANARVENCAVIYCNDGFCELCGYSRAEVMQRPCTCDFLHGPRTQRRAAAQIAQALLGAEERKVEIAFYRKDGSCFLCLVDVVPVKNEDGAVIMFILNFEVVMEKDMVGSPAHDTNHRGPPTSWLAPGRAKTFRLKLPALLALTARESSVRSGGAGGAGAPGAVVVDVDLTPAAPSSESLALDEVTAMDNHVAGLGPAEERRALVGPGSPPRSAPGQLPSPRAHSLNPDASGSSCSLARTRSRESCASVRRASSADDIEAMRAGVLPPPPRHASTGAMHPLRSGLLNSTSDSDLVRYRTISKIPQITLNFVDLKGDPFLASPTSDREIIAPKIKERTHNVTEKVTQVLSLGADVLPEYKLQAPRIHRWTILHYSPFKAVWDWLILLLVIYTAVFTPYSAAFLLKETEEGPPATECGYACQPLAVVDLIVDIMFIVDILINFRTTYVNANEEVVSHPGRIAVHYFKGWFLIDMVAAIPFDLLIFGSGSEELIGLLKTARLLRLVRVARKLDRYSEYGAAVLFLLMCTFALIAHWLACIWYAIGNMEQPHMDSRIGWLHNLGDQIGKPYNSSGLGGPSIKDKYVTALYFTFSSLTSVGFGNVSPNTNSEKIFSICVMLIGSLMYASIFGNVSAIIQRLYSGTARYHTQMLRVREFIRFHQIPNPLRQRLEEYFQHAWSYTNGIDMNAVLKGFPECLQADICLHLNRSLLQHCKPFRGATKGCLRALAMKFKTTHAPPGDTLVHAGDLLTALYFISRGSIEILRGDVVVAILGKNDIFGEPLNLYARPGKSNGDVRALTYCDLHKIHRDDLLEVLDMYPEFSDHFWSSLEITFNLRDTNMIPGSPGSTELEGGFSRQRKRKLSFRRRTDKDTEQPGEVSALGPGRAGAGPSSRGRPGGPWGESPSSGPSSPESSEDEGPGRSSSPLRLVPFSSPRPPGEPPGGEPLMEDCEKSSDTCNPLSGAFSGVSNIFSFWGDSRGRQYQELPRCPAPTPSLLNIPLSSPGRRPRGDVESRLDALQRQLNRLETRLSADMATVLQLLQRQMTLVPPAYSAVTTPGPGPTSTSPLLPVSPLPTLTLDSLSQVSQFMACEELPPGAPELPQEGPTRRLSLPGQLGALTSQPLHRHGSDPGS
row,Compound,"hERG current change (%, negative = inhibition) at 1uM [%]"
1,COc1ccc(CCNC(=S)NCc2cccs2)cc1OC,8.53
2,O=C(C[n+]1cccc(/C=N/O)c1)N1CCCc2ccccc21.[Cl-],13.5
3,CS(=O)(=O)c1ccc(Cl)c(NC(=O)c2cccc(-n3cnnn3)c2)c1,-25.5
4,CCN1CCN(c2ncnc3c2cnn3-c2ccc(Cl)cc2)CC1,10.6
5,Cc1ccc(C(=O)OCC(=O)Nc2ccc(C(N)=O)cc2)s1,7.67
6,COc1ccc(/C=C/C(=O)NCC(=O)N/N=C/c2cc(Br)ccc2OCc2ccccc2)cc1,-0.127
7,C/C(=N/NC(=O)CNC(=O)c1ccco1)c1ccc(Cl)cc1,13.8
8,COC(=O)CNC(=O)C12CC3(C)CC(C)(CC(C)(C3)C1)C2,9.23
9,CCOC(=O)C1CCCN(Cc2nc3ccc([N+](=O)[O-])cc3c(=O)n2-c2ccc(OC)cc2OC)C1 (stereo not shown),0.0791
10,COc1ccc(/C(C)=N/NC(=O)C(NC(=O)c2ccccc2)c2n[nH]c(=O)c3ccccc23)c(OC)c1 (stereo not shown),11.7
11,CC(C)CNC(=O)C(=O)NC1CCCC1,7.11
12,Cc1ccccc1NC(=S)C1=C(O)c2sccc2N(C)S1(=O)=O,8.99
13,COc1cc(C2C(=O)c3ccccc3C2=O)ccc1O,22.6
14,O=C(NCC1CCCO1)C1c2ccccc2C(=O)N1C1CCCCCCC1 (stereo not shown),9.96
15,Cc1ccccc1OCC(=O)N1CCCc2ccccc21,-10.1
16,Cc1ccc(S(=O)(=O)CCC(=O)OCC(=O)NCC(=O)Nc2cccc(C)c2C)cc1,5.91
17,Cc1ccc(NC(=O)c2ccc3nc[nH]c3c2)c(O)c1,4.53
18,O=C1CC(c2ccccc2)C(=O)N1c1cccc(O)c1 (stereo not shown),0.511
19,O=C(Nc1nnc(-c2ccc(Cl)s2)o1)C1CCCCC1,8.31
20,COc1ccc(S(=O)(=O)N2CCC(NC(=O)c3cccc(F)c3)CC2)cc1,11.8

row,Compound,"hERG current change (%, negative = inhibition) at 1uM [%]"
1,Cc1c(Cl)cccc1NC(=O)NCc1ccc(C)n1C,10.1
2,CCc1ccc(CN(C)C(C)C(=O)NCc2ccccc2)cc1 (stereo not shown),0.484
3,FC(F)(F)c1cc(-c2ccco2)nc(-n2cnc3ccccc32)n1,-2.75
4,Cc1ccc(NC(=S)NCc2ccc3c(c2)OCO3)cc1,18.7
5,COc1ccc2[nH]c(=O)c(CN(CCO)C(=O)c3cccs3)cc2c1,-4.26
6,COC(=O)c1sccc1NC(=O)c1cc(OC)cc(OC)c1,2.85
7,C=C(C)COc1ccc2c(C)c(C)c(=O)oc2c1OCC(=C)C,7.02
8,COc1cccc(OC)c1C(=O)NC(=S)Nc1ccc2oc(=O)ccc2c1,12
9,COc1ccc(CN(C)CC(O)COC(c2ccccc2)c2ccccc2)c(OC)c1OC (stereo not shown),-43.6
10,CC1(C)C=Cc2c(ccc(-c3coc4cc(O)ccc4c3=O)c2O)O1,3.22
11,CN1CCN(CC(=O)N2c3ccccc3Sc3ccccc32)CC1,5.24
12,CCN=C1S/C(=C\c2cc(Br)c(O)c(OC)c2)C(=O)N1CC,9.92
13,COc1ccc(CC(=O)NCC(=O)NCc2cc(=O)n(C)c(=O)n2C)cc1,12.9
14,COC(=O)c1c(C)oc2ccc(N(C(=O)c3ccncc3)S(=O)(=O)c3ccccc3)cc12,-1.4
15,CC(=O)NC1(C(F)(F)F)C(=O)Nc2c1c(=O)n(C)c(=O)n2C (stereo not shown),12.1
16,C=CCNC(=O)C(=O)c1c(-c2ccccc2)[nH]c2ccccc12,14.3
17,CN(CC(=O)Nc1ccc(F)c(F)c1F)C(=O)c1cc(-c2ccncc2)nc2ccccc12,0.428
18,CC(=O)NCCNC(=O)c1ccc(Sc2ccccc2)c([N+](=O)[O-])c1,-15.6
19,CC(Cc1ccccc1)(NC(=O)CN)c1ccccc1.Cl (stereo not shown),13.4
20,COc1ccc(CN(C)Cc2nc(Cc3cccc(F)c3)no2)c2cccnc12,9.83

row,Compound,"hERG current change (%, negative = inhibition) at 1uM [%]"
1,c1ccc(-c2csc3ncnc(N4CCc5ccccc5C4)c23)cc1,4.63
2,O=C(CSc1nccc(=O)[nH]1)Nc1ccc(Oc2ccccc2)cc1,10.4
3,CCc1ccc(-c2csc3nc[nH]c(=O)c23)cc1,6.72
4,COc1cccc(Nc2nc(N)nc(C(F)(F)F)n2)c1,13.7
5,COCCN1C(=O)N[C@@H](CCc2ccccc2)C(C(C)=O)=C1C,5.21
6,COc1cccc(/C=N/NC(=O)CNC(=O)COc2ccccc2)c1O,6.16
7,COc1cc(/C=C2\SC(N)=NC2=O)cc(Cl)c1O,15.9
8,CCC(=O)NC(=S)Nc1ccc(N2CCOCC2)cc1,4.88
9,CN(C1CCCCC1)S(=O)(=O)c1ccc(NC(=O)c2ccc(Br)o2)cc1,6.33
10,N#C/C(=C\c1ccc(F)cc1F)S(=O)(=O)c1ccccn1,8.65
11,O=C(Nc1ccc(Nc2ccccc2)cc1)c1ccc(Cl)cc1[N+](=O)[O-],9.44
12,N#Cc1cccc(C#N)c1Oc1ccc(S(=O)(=O)Nc2ccccc2)cc1,16
13,Cc1cc(=O)oc(C)c1C(=O)NCCN1CCOCC1,7
14,CCOc1cc(CNCc2cccnc2)cc(Br)c1OCC(N)=O.Cl,8.87
15,COc1ccc(Cl)cc1-c1nc(SCC(=O)NC2CC2)n[nH]1,-0.229
16,CCN(CC)CC(=O)c1c[nH]c2ccc(OC)cc12,3.98
17,Cc1onc(-c2c(Cl)cccc2Cl)c1C(=O)Nc1ccc2c(c1)OCO2,0.619
18,CCOc1cc(CO)cc(Br)c1OCC(N)=O,16.2
